# Experimental data as given in PubChem BioAssay AID588855 (National Center for Advancing Translational Sciences (NCATS), 2011).
# The whole screen tested about 410,000 compounds, of which about 5,000 (1.2%) were called active. Inconclusive results, whose numbers are uncertain, are shown with a selection of clear calls. Calls follow the shape of the dose curve; as a rule, active = well fitted inhibition curve with a large enough effect; inconclusive = small, poorly fitted or top-dose-only effect; inactive = no such curve, though single readings can be large or run the other way. Where the call is inconclusive, the potency comes from a doubtful curve fit.
# Assay: qHTS for Inhibitors of TGF-b; also: nearly all actives have a fitted effect of over 65% in size
# Settings: HepG2 CAGA-GFP TGF-b/SMAD3 reporter, GFP fluorescence, 18 h, TGF-beta stimulated, 500 pg/mL final; series mostly up to 46.1 µM
# Summary of the method: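 GFP signal (ex488/em500-530) from TGF-beta-stimulated HEPG2 CAGA-GFP cells, 500 pg/mL final, 18 h at 37 degrees C in DMEM plus 1% FBS, normalized to unstimulated and DMSO-stimulated controls.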
# Potency is read from the fitted curve at half-maximal effect; tags tell the direction and shape of the fitted curve.
row,Structure (SMILES),Potency
1,COc1cc(-c2ccno2)ccc1S(=O)(=O)N1CCN(c2ccc(C(C)=O)cc2)CC1,"inconclusive: 7.94 µM [inhibitor, single point]"
2,Cc1ccc(SCCN2CCN(Cc3ccccc3)CC2)cc1,"inconclusive: 35.5 µM [inhibitor, single point]"
3,CCC(=O)Oc1ccc2c(=O)c(-c3ccc4ccccc4n3)c(CC)oc2c1C,inactive
4,CCCCC(=O)Nc1ccccc1C(=O)OCc1cc(=O)n2nc(C3CCCCC3)sc2n1,"inconclusive: 22.4 µM [inhibitor, single point]"
5,CCN(CCCNC(=O)c1ccc2c(c1)NC(=O)CN2C)c1cccc(C)c1,"inconclusive: 35.5 µM [inhibitor, single point]"
6,CN(C(=O)c1cc(S(=O)(=O)N2CCCCC2)c[nH]1)C1CCCCC1,"inconclusive: 11.2 µM [inhibitor, partial curve, poor fit]"
7,O=C(CCN1CCOCC1)c1ccc(Br)cc1,"inconclusive: 35.5 µM [inhibitor, single point]"
8,O=C(Cc1ccc(Cl)c(Cl)c1)Nc1ccc(SC(F)F)cc1,"inconclusive: 35.5 µM [inhibitor, partial curve, poor fit]"
9,Cc1ccc(S(=O)(=O)N2CCN(C(=O)CSc3ncc(C(F)(F)F)cc3Cl)CC2)cc1,"inconclusive: 0.794 µM [inhibitor, full curve, poor fit]"
10,CN(CC(=O)Nc1sc2c(c1C#N)CCCCC2)Cc1nc2ccccc2c(=O)[nH]1,inactive
11,Cc1ccc(NC(=S)NCc2ccc(F)cc2)c(C)c1,inactive
12,O=[N+]([O-])c1ccc(S(=O)(=O)Nc2cccc(-c3ccc(N4CCCC4)nn3)c2)cc1,"inconclusive: 35.5 µM [inhibitor, single point]"
13,Cc1ccc(NC(=O)CN2C(=O)S/C(=C/c3ccc(O)c([N+](=O)[O-])c3)C2=O)cc1C,"inconclusive: 1 µM [inhibitor, single point]"
14,Cc1[nH]c(C)c(C(=O)/C=C/c2ccc([N+](=O)[O-])cc2)c1C,"inconclusive: 35.5 µM [inhibitor, single point]"
15,COc1ccc2[nH]c(C)c(CCNS(=O)(=O)c3cc(F)ccc3OC)c2c1,inactive
16,Cc1ccc2c(C)c(C(=O)N(Cc3ccc(Cl)cc3)C3CCS(=O)(=O)C3)oc2c1 (stereo not given),active: 11.2 µM
17,CC(=O)C1=CCC(c2ccc(F)cc2)N(S(=O)(=O)c2ccc(C)cc2)C1 (stereo not given),"inconclusive: 11.2 µM [inhibitor, partial curve]"
18,CC(CCCC(C)(C)O)NC(=O)c1ccc2oc(CCc3ccccc3)nc2c1 (stereo not given),"inconclusive: 35.5 µM [inhibitor, single point]"
19,COc1cc2c(cc1OC)C(COc1ccc3c(C)cc(=O)oc3c1)N(C(=O)c1ccc(Cl)cc1)CC2 (stereo not given),inactive
20,O=Cc1cn(-c2ccccc2)nc1-c1cccc([N+](=O)[O-])c1,inactive
21,O=C1[C@@H]2CSC(c3ccc(C(F)(F)F)cc3)N2C(=O)N1c1ccccc1 (stereo not given in full),"inconclusive: 15.8 µM [inhibitor, single point]"
22,Cc1ccc(C(=O)Nc2nc3ccc(Cl)cc3s2)o1,"inconclusive: 35.5 µM [inhibitor, single point]"
23,CCCNc1c(NC(=O)c2ccc(OCCC)cc2)c(=O)oc2ccccc12,"inconclusive: 11.2 µM [inhibitor, partial curve, poor fit]"
24,COc1cc(F)c(C2=CC(=O)C[C@H](c3ccc(Cl)cc3)C2)cc1F,"inconclusive: 20 µM [inhibitor, partial curve, poor fit]"

row,Structure (SMILES),Potency
1,COc1ccc(CNC(=O)C(=O)NCC2OCCN2S(=O)(=O)c2ccc(F)cc2)cc1 (stereo not given),inactive
2,O=C(CSc1nccn1-c1ccc(F)cc1)Nc1ccc(OC(F)(F)F)cc1,inactive
3,CCc1cc2c(=O)n(Cc3ccco3)c(SCc3c(C)noc3C)nc2s1,"inconclusive: 35.5 µM [inhibitor, single point]"
4,CC(C)(C)NC(=O)NC(=O)CN1CCN(c2ccc(O)cc2)CC1,inactive
5,CCCS(=O)(=O)N1CCCC(C(=O)NCCN(C)Cc2ccccc2)C1 (stereo not given),"inconclusive: 3.55 µM [inhibitor, single point]"
6,Cc1ccc2[nH]c(=O)c(CN(Cc3ccccc3)Cc3nnnn3Cc3ccccc3)cc2c1,inactive
7,CCOC(=O)CNS(=O)(=O)c1ccc(C)cc1,inactive
8,Cc1ccc(S(=O)(=O)NCC(c2cccnc2)N2CCc3ccccc32)cc1 (stereo not given),"inconclusive: 12.6 µM [inhibitor, single point]"
9,Cc1cc(OCc2cc(C(=O)N(C)Cc3ccccn3)no2)cc(C)c1Cl,inactive
10,CCc1ccc(C2c3[nH]c4ccccc4c3CCN2C(=O)c2ccc(=O)n(C)n2)cc1 (stereo not given),inactive
11,COc1ccc2c(c1)-c1nc(/N=C/c3c(O)ccc4ccccc34)sc1CC2,"inconclusive: 6.31 µM [inhibitor, single point]"
12,Cc1ccc([C@@H]2CC=C(C(=O)O)[C@H](c3ccc(C(C)(C)C)cc3)N2S(=O)(=O)c2ccc(C)cc2)cc1,"inconclusive: 31.6 µM [inhibitor, single point]"
13,COC(=O)c1ccc(C(=O)OC)c(NC(=O)C2CCCO2)c1 (stereo not given),inactive
14,CCOc1ccc(S(=O)(=O)Nc2cccc(C(=O)N3CCN(c4ccccc4O)CC3)c2)cc1,"inconclusive: 22.4 µM [inhibitor, single point]"
15,COc1ccc(CNC(=O)Cc2csc(NC(=O)Nc3ccccc3OC)n2)cc1,inactive
16,CN(c1cccc(Cl)c1)S(=O)(=O)c1cccc(C(=O)Nc2nc3ccccc3[nH]2)c1,inactive
17,C[C@@H]1CN([C@H](C)CO)C(=O)c2cccc(NS(=O)(=O)c3cccs3)c2O[C@H]1CN(C)Cc1ccccc1,"inconclusive: 35.5 µM [inhibitor, single point]"
18,CCCCOCC(O)Cn1c(C)nc2ccccc21 (stereo not given),inactive
19,C/C(=N\N=C1\NC(=O)C(CC(=O)Nc2ccccc2F)S1)C1CCCCC1 (stereo not given),"inconclusive: 14.1 µM [inhibitor, single point]"
20,Fc1ccc(NCc2nnc(SCc3ccccc3)o2)cc1,"inconclusive: 22.4 µM [inhibitor, single point]"
21,COCCNC(=S)N1CCc2cc(OC)c(OC)cc2C1COc1ccc(F)cc1 (stereo not given),inactive
22,c1ccc2c(c1)CCN(CCCNc1nc3ccccc3n3cnnc13)C2,inactive
23,O=c1cc(N2CCN(c3ccc(F)cc3)CC2)[nH]c(=O)n1-c1ccc(Br)cc1,inactive
24,C[C@H]1CN([C@@H](C)CO)C(=O)c2cc(NC(=O)C3CCCCC3)ccc2O[C@H]1CN(C)S(=O)(=O)c1ccccc1,inactive

row,Structure (SMILES),Potency
1,CCSc1nc(-c2ccc(OC)cc2)cc(-c2ccccc2)c1C#N,"inconclusive: 5.62 µM [inhibitor, single point]"
2,COCCCNc1nc(N)c([N+](=O)[O-])c(Nc2cc(OC)ccc2OC)n1,"inconclusive: 1.12 µM [inhibitor, partial curve, poor fit]"
3,CCCCCCCCCCCCN1C(=O)CSC1c1cccnc1 (stereo not given),"inconclusive: 35.5 µM [inhibitor, single point]"
4,O=C(NCc1ccco1)c1ccc(Cl)c(S(=O)(=O)Nc2ccccc2)c1,inactive
5,O=C(CSCc1ccc(F)cc1)N1CCN(c2ccc(F)cc2)CC1,"inconclusive: 5.62 µM [inhibitor, single point]"
6,Cc1onc(-c2ccccc2Cl)c1C(=O)N1CCOC12CCN(c1cccc(F)n1)CC2,inactive
7,Cc1ccc(C(=O)Nc2cccc(-c3nc4cccnc4s3)c2C)cc1,"inconclusive: 22.4 µM [inhibitor, partial curve, poor fit]"
8,COc1ccc(CNC(=O)Nc2nc(C(N)Cc3ccc(F)cc3)cs2)cc1 (stereo not given),"inconclusive: 35.5 µM [inhibitor, single point]"
9,CC1=NN(c2ccccc2)C(=O)/C1=C\c1sccc1C,"inconclusive: 5.01 µM [inhibitor, single point]"
10,NS(=O)(=O)c1ccc(CCNC(=O)CCNS(=O)(=O)c2ccccc2C(F)(F)F)cc1,inactive
11,N#C/C(=C(/O)COC(=O)CSc1ccc(Cl)cc1)c1nc2ccccc2[nH]1,inactive
12,CC1=NN(C(=O)CSCc2ccccc2)C(O)(c2ccc(Cl)cc2)C1 (stereo not given),"inconclusive: 20 µM [inhibitor, single point]"
13,CC1CCCCC1NC(=O)C1CCC(CNS(=O)(=O)c2ccccc2)CC1 (stereo not given),inactive
14,CN1Cc2c(N3CCOCC3)nc3sc(C#N)c(N)c3c2CC1(C)C,inactive
15,C/C(=N/Nc1ccnc2cc(Cl)ccc12)c1ccc(O)cc1,"inconclusive: 28.2 µM [inhibitor, single point]"
16,Cc1cccc(C)c1-n1nnnc1C(c1cc2ccccc2o1)N1CCN(C/C=C/c2ccccc2)CC1 (stereo not given),"inconclusive: 35.5 µM [inhibitor, single point]"
17,CCN1C(=NCc2cccc(Cl)c2)N[C@@H](c2cccc(C(F)(F)F)c2)C(C(=O)OC)=C1C,active: 14.1 µM
18,COc1ccc(/C=N/NC(=O)c2ccc(CSc3nc(C)cc(C)n3)cc2)cc1O,inactive
19,CC1(Cc2ccccc2F)C(=O)Nc2c(Cl)ccc(Cl)c21 (stereo not given),"inconclusive: 35.5 µM [inhibitor, single point]"
20,COc1ccc(NC(=O)CSc2nc(-c3ccc(OC)cc3)[nH]c2-c2ccc(OC)cc2)cc1,"inconclusive: 35.5 µM [inhibitor, single point]"
21,CCc1cc(C(=O)Nc2cc(S(=O)(=O)N3CCCCC3)ccc2N2CCN(C)CC2)sc1C,"inconclusive: 35.5 µM [inhibitor, single point]"
22,O=C(CSc1nnc(CNc2ccc(Cl)cc2)o1)Nc1nc2c(s1)CCCC2,"inconclusive: 11.2 µM [inhibitor, partial curve, poor fit]"
